Test results as given in the supplement of paper PMC6089552.
In all, about 3,200 compounds went through this assay and about 300 (9.4%) showed activity. Only a part is listed here, and it is no random draw.

System: A673/TR/shEF
Experiment: cell viability (LOESS-normalised, relative to median of negative controls) (log2 ratio); higher = more viable cells (less compound effect), active = hit call of the paper (over 3 MAD below the median)
Conditions: treatment time: 72 h
Summary of the method: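 A673/TR/shEF Ewing sarcoma cells (1,500 per well, 384-well plates) were grown with or without doxycycline to induce EWS-FLI1 shRNA knockdown, starting 24 h before compounds. Library compounds at two or more concentrations, with DMSO controls, were added for three days. Cell viability was read by CellTiter-Glo luminescence on an Envision reader, then LOESS-corrected per plate, divided by the median of negative controls and log2-transformed. Hits were wells at least three median absolute deviations from the median of all screened wells.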

[1] = 0.25 µM, library screen: screen1, EWS-FLI1 expression: high (no doxycycline)
[2] = 0.25 µM, library screen: screen1, EWS-FLI1 expression: low (doxycycline-induced shRNA knockdown)
[3] = 2.5 µM, library screen: screen1, EWS-FLI1 expression: high (no doxycycline)
[4] = 2.5 µM, library screen: screen1, EWS-FLI1 expression: low (doxycycline-induced shRNA knockdown)
[5] = 0.25 µM, library screen: screen2, EWS-FLI1 expression: high (no doxycycline)
[6] = 0.25 µM, library screen: screen2, EWS-FLI1 expression: low (doxycycline-induced shRNA knockdown)
[7] = 2.5 µM, library screen: screen2, EWS-FLI1 expression: high (no doxycycline)
[8] = 2.5 µM, library screen: screen2, EWS-FLI1 expression: low (doxycycline-induced shRNA knockdown)
[9] = 0.025 µM, library screen: screen1, EWS-FLI1 expression: high (no doxycycline)
[10] = 0.025 µM, library screen: screen1, EWS-FLI1 expression: low (doxycycline-induced shRNA knockdown)
[11] = 25 µM, library screen: screen1, EWS-FLI1 expression: high (no doxycycline)
[12] = 25 µM, library screen: screen1, EWS-FLI1 expression: low (doxycycline-induced shRNA knockdown)
[13] = 0.103 µM, library screen: screen3, EWS-FLI1 expression: high (no doxycycline)
[14] = 0.103 µM, library screen: screen3, EWS-FLI1 expression: low (doxycycline-induced shRNA knockdown)
[15] = 0.308 µM, library screen: screen3, EWS-FLI1 expression: high (no doxycycline)
[16] = 0.308 µM, library screen: screen3, EWS-FLI1 expression: low (doxycycline-induced shRNA knockdown)
[17] = 0.926 µM, library screen: screen3, EWS-FLI1 expression: high (no doxycycline)
[18] = 0.926 µM, library screen: screen3, EWS-FLI1 expression: low (doxycycline-induced shRNA knockdown)
[19] = 2.8 µM, library screen: screen3, EWS-FLI1 expression: high (no doxycycline)
[20] = 2.8 µM, library screen: screen3, EWS-FLI1 expression: low (doxycycline-induced shRNA knockdown)
[21] = 8.3 µM, library screen: screen3, EWS-FLI1 expression: high (no doxycycline)
[22] = 8.3 µM, library screen: screen3, EWS-FLI1 expression: low (doxycycline-induced shRNA knockdown)
[23] = 25 µM, library screen: screen3, EWS-FLI1 expression: high (no doxycycline)
[24] = 25 µM, library screen: screen3, EWS-FLI1 expression: low (doxycycline-induced shRNA knockdown)

Measured: cell viability (log2)

CCCCN(CC)c1c([N+](=O)[O-])cc(C(F)(F)F)cc1[N+](=O)[O-]
inactive: [1] 0.116 | [2] 0.132 | [3] 0.0478 | [4] 0.194

CC(=O)OC1CCC23C(=O)OC45CCC(C6=CC(=O)OC6)C4(C)CCC2C5CCC3(O)C1 (stereo not given)
active: [3] -1.11 | [4] -1.12

CC1=CC(=O)C2=C(C)C[C@H](O)[C@H]3[C@H](C)C(=O)O[C@@H]3C12 (stereo not given in full)
inactive: [1] 0.136 | [2] 0.0103 | [3] 0.161 | [4] 0.0651

Cn1c(=O)c2c(ncn2CCCl)n(C)c1=O
inactive: [1] 0.086 | [2] -0.0151 | [3] -0.000593 | [4] 0.00538

Cc1ccc(S(=O)(=O)N[C@@H](CCCCN)C(=O)CCl)cc1
inactive: [5] 0.171 | [6] 0.0178 | [7] 0.185 | [8] 0.0594

CCCN1CCC[C@@H](c2cccc(O)c2)C1
inactive: [5] 0.197 | [6] 0.0866 | [7] 0.0873 | [8] 0.0807

CCNC(=O)[C@H]1O[C@@H](n2cnc3c(N)ncnc32)[C@H](O)[C@@H]1O
inactive: [5] 0.186 | [6] 0.0998 | [7] 0.0806 | [8] 0.122

Clc1ccc(N2CC3CCC(C2)N3)nn1
inactive: [5] 0.0793 | [6] 0.0488 | [7] 0.0757 | [8] 0.0472

Cc1cccc(C)c1NC1=NCCCS1
inactive: [1] 0.119 | [2] 0.109 | [5] 0.135 | [6] 0.0946 | [3] 0.147 | [4] 0.163 | [7] 0.169 | [8] 0.0803

NCCc1c[nH]c2ccccc12
inactive: [1] 0.0863 | [2] 0.0487 | [5] -0.0607 | [6] 0.0934 | [3] 0.0912 | [4] 0.0293 | [7] 0.0286 | [8] 0.047

C[C@]12CC[C@H](O)C[C@H]1CC[C@@H]1[C@@H]2C[C@@H](O)[C@]2(C)[C@@H](C3=CC(=O)OC3)CC[C@]12O
active: [3] -0.488 | [4] -0.691

O=c1ccc2cc(O[C@@H]3OC(CO)[C@@H](O)C(O)C3O)c(O)cc2o1 (stereo not given in full)
inactive: [1] 0.0986 | [2] -0.0879 | [3] 0.201 | [4] 0.107

CCCSP(=O)(OCC)SCCC
inactive: [1] 0.112 | [2] 0.104 | [3] 0.0625 | [4] 0.0939

CN1CCN(C(=O)OC2c3nccnc3C(=O)N2c2ccc(Cl)cn2)CC1 (stereo not given)
inactive: [5] 0.205 | [6] 0.102 | [7] 0.154 | [8] 0.109

CN[C@@H]1C[C@H]2O[C@@](C)([C@@H]1OC)n1c3ccccc3c3c4c(c5c6ccccc6n2c5c31)C(=O)NC4
active: [9] -2.08 | [10] -1.86 | [1] -3.68 | [2] -3.78 | [3] -4.25 | [4] -4.31 | [11] -4.11 | [12] -4.31

CCN1C[C@]2(COC)[C@H](O)C[C@H](OC)[C@]34C1[C@H]([C@H](OC)[C@H]23)[C@]1(OC(C)=O)[C@H]2[C@@H](OC(=O)c3ccccc3)[C@](O)(C[C@H]24)[C@@H](OC)[C@@H]1O
inactive: [1] 0.162 | [2] 0.0997 | [3] 0.181 | [4] 0.202

Clc1ccc(C(OCCN2CCCCC2)c2ccccc2)cc1 (stereo not given)
inactive: [1] 0.0706 | [2] -0.00561 | [3] 0.0775 | [4] 0.0945

Cc1c(N)nc([C@H](CC(N)=O)NC[C@H](N)C(N)=O)nc1C(=O)N[C@H](C(=O)N[C@H](C)[C@@H](O)[C@H](C)C(=O)N[C@H](C(=O)NCCc1nc(-c2nc(C(=O)NCCC[S+](C)C)cs2)cs1)[C@@H](C)O)[C@@H](OC1OC(CO)C(O)C(O)C1OC1OC(CO)C(O)C(OC(N)=O)C1O)c1cnc[nH]1 (stereo not given in full)
inactive: [1] 0.091 | [2] 0.105 | [3] 0.125 | [4] 0.052

O=C(O)C1C2CCC(O2)C1C(=O)O (stereo not given)
active: [3] -0.431 | [4] -2.19 | [11] -0.369 | [12] -2.13
inactive: [9] 0.136 | [10] 0.0328 | [1] 0.0769 | [2] 0.0235 | [5] 0.267 | [6] 0.0812 | [7] 0.105 | [8] -0.0306

CN(C)C(=O)Oc1ccc[n+](C)c1
inactive: [13] 0.101 | [14] 0.057 | [1] 0.121 | [2] 0.143 | [5] 0.231 | [6] 0.0517 | [15] 0.0662 | [16] 0.104 | [17] 0.0748 | [18] 0.0993 | [3] 0.0955 | [4] 0.131 | [7] 0.306 | [8] 0.0307 | [19] -0.0235 | [20] 0.0464 | [21] -0.0229 | [22] 0.133 | [23] 0.000715 | [24] 0.0844

CCC1(O)CC(OC2CC(N(C)C)C(O)C(C)O2)c2c(cc3c(c2O)C(=O)c2c(O)cccc2C3=O)C1C(=O)OC (stereo not given)
inactive: 0.025 µM, library screen: screen2, EWS-FLI1 expression: high (no doxycycline) -0.0129 | 0.025 µM, library screen: screen2, EWS-FLI1 expression: low (doxycycline-induced shRNA knockdown) 0.0193 | [5] 0.135 | [6] -0.0369
active: [7] -0.409 | [8] -0.0756 | 25 µM, library screen: screen2, EWS-FLI1 expression: high (no doxycycline) -4.23 | 25 µM, library screen: screen2, EWS-FLI1 expression: low (doxycycline-induced shRNA knockdown) -3.71

C#CCN(C)[C@H](C)Cc1ccccc1
inactive: [13] 0.0599 | [14] 0.0326 | [15] -0.0258 | [16] 0.00835 | [17] 0.029 | [18] 0.0504 | [19] -0.0101 | [20] -0.00191 | [21] 0.0521 | [22] 0.0473 | [23] -0.00353 | [24] 0.0686

CN1C2CC3CC1[C@H](O)C2O3 (stereo not given in full)
inactive: [1] 0.0139 | [2] -0.0209 | [3] 0.0278 | [4] 0.0758

CC(N)c1cccc(Cl)c1Cl (stereo not given)
inactive: [5] 0.233 | [6] 0.103 | [7] 0.144 | [8] 0.0732
